This is one part of the list.
Tested on: S. aureus RN4220
Assay: growth inhibition call (relative growth <= 0.2)
Details: 50 µM

Growth inhibition call, inactive:
O=C(C[C@@H]1C[C@H]2c3cc(NC(=O)Nc4ccc(C(F)(F)F)cc4)ccc3O[C@H]2[C@H](CO)O1)NCCc1ccccc1
C[C@@H]1CN([C@@H](C)CO)C(=O)c2cc(NC(=O)CCC(F)(F)F)ccc2O[C@@H](C)CCCCO[C@H]1CN(C)Cc1ccccc1
C[C@@H](NS(=O)(=O)c1cccc(F)c1)C(=O)O
COc1ccc(S(=O)(=O)Nc2ccc3c(c2)C(=O)N([C@@H](C)CO)C[C@@H](C)[C@H](CN(C)C(=O)Nc2cccc4ccccc24)OCCCC[C@H](C)O3)cc1
C[C@@H]1CN([C@@H](C)CO)C(=O)c2cc(C#Cc3ccccc3F)cnc2O[C@@H]1CN(C)S(=O)(=O)c1ccccc1
O=C(C[C@@H]1C[C@@H]2c3cc(NS(=O)(=O)c4ccccc4)ccc3O[C@@H]2[C@@H](CO)O1)NC1CCCCC1
C[C@H](CO)N1C[C@H](C)[C@@H](CN(C)C(=O)Nc2ccc(C(F)(F)F)cc2)Oc2ccc(NC(=O)CCCCCC(=O)Nc3ccccc3N)cc2CC1=O
Cc1c(C(N)=O)sc2[nH]cnc(=O)c12
COc1ccc(NC(=O)Nc2cccc3c2O[C@@H](CN(C)Cc2ccc(Cl)c(Cl)c2)[C@H](C)CN([C@@H](C)CO)C3=O)cc1
C[C@@H]1CN([C@H](C)CO)C(=O)c2cc(NC(=O)NC3CCCCC3)ccc2O[C@H]1CN(C)C(=O)Nc1cccc2ccccc12
CCCN(C)C[C@H]1Oc2cc(C#Cc3cccc(OC)c3)ccc2S(=O)(=O)N([C@@H](C)CO)C[C@H]1C
Cc1noc(C)c1NC(=O)Nc1ccc2c(c1)C(=O)N([C@H](C)CO)C[C@H](C)[C@@H](CN(C)CC1CC1)OCCCC[C@H](C)O2
C[C@H]1CN([C@@H](C)CO)S(=O)(=O)c2ccc(Br)cc2O[C@@H]1CN(C)C(=O)c1cccnc1
Cc1noc(C)c1NC(=O)Nc1ccc2c(c1)CC(=O)N([C@@H](C)CO)C[C@@H](C)[C@H](CN(C)C(=O)Nc1ccc(C(F)(F)F)cc1)O2
C[C@H](CO)N1C[C@H](C)[C@H](CN(C)S(=O)(=O)c2ccc(C#N)cc2)OCc2cnnn2CCCC1=O
C[C@@H]1CCCCO[C@@H](CN(C)CC2CCCCC2)[C@H](C)CN([C@@H](C)CO)C(=O)c2cc(NC(=O)NC3CCCCC3)ccc2O1
CC(=C\C(=O)O)/C=C(\C)C[C@H](C)CCCC[C@H](OC(=O)[C@H](CO)[C@H](O)CCCC[C@H](C)C/C(C)=C/C(C)=C/C(=O)O)[C@@H](CO)C(=O)O
Cc1ccc(S(=O)(=O)Nc2ccc3c(c2)C(=O)N([C@H](C)CO)C[C@@H](C)[C@H](CN(C)S(=O)(=O)c2cccs2)O3)cc1
O=C(NC1CCCCC1)NC1CCCCC1
C[C@@H]1CCCCO[C@@H](CN(C)Cc2ccc(C(F)(F)F)cc2)[C@@H](C)CN([C@H](C)CO)C(=O)c2cc(NS(=O)(=O)c3ccc(F)cc3)ccc2O1
COc1ccc(C(=O)Nc2ccc3c(c2)C(=O)N(C)[C@@H]2CC[C@@H](CC(=O)NCC4CC4)O[C@@H]2CO3)cc1
CO[C@H]1CN(C)C(=O)c2cc(NS(C)(=O)=O)ccc2OC[C@H](C)N(C(=O)c2ccc3c(c2)OCO3)C[C@H]1C
C[C@H](CO)N1C[C@H](C)[C@@H](CN(C)CC2CC2)Oc2c(NC(=O)Nc3cccc4ccccc34)cccc2C1=O
Cc1ccc(-c2cccc(C(=O)N[C@H]3CC[C@@H](N)CC3)c2)o1
COc1cccc(-c2ccc3c(c2)O[C@H](CN(C)C(=O)C2CC2)[C@@H](C)CN([C@H](C)CO)S3(=O)=O)c1
COc1ccc(NC(=O)Nc2ccc3c(c2)C(=O)N([C@@H](C)CO)C[C@@H](C)[C@H](CN(C)S(=O)(=O)c2cn(C)cn2)O3)cc1
C[C@]1(C(=O)NCc2ccccc2)c2ccccc2C(=O)N(Cc2ccc(OC(F)(F)F)cc2)[C@H]1c1ccc(CO)cc1
COc1ccc(NC(=O)Nc2ccc3c(c2)C(=O)N([C@H](C)CO)C[C@H](C)[C@H](CN(C)Cc2ccc4c(c2)OCO4)OCCCC[C@@H](C)O3)cc1
C[C@@H]1CCCCO[C@H](CN(C)Cc2ccc(C(F)(F)F)cc2)[C@@H](C)CN([C@H](C)CO)C(=O)c2cc(NC(=O)Nc3cccc4ccccc34)ccc2O1
C[C@H](CO)N1C[C@H](C)[C@@H](CN(C)Cc2ccc(C(=O)O)cc2)Oc2c(NS(=O)(=O)c3cn(C)cn3)cccc2C1=O
COc1ccc(NC(=O)Nc2ccc3c(c2)CC(=O)N([C@@H](C)CO)C[C@H](C)[C@@H](CN(C)C(=O)Nc2ccc(C(F)(F)F)cc2)O3)cc1
COc1ccc(S(=O)(=O)Nc2ccc3c(c2)C(=O)N([C@@H](C)CO)C[C@H](C)[C@@H](CN(C)CC2CC2)O3)cc1
COc1ccc(S(=O)(=O)Nc2ccc3c(c2)C(=O)N([C@H](C)CO)C[C@H](C)[C@H](CN(C)C(=O)Nc2cccc4ccccc24)OCCCC[C@@H](C)O3)cc1
C[C@@H]1CN([C@H](C)CO)C(=O)CCCn2nncc2CO[C@H]1CN(C)C(=O)Nc1ccc(C(C)(C)C)cc1
C[C@@H]1CN([C@H](C)CO)C(=O)c2cccc(NC(=O)c3cnccn3)c2O[C@H]1CN(C)S(=O)(=O)c1ccc(Cl)cc1
O=C(C[C@@H]1CC[C@@H]2[C@H](COC[C@@H](O)CN2S(=O)(=O)c2ccccc2)O1)NCc1ccc2c(c1)OCO2
Cc1noc(C)c1S(=O)(=O)Nc1ccc2c(c1)C(=O)N([C@H](C)CO)C[C@H](C)[C@H](CN(C)S(C)(=O)=O)OCCCC[C@@H](C)O2
C[C@@H]1CN([C@H](C)CO)C(=O)c2cccc(NC(=O)Nc3ccc(F)cc3)c2O[C@H]1CN(C)Cc1ccc(C(=O)Nc2ccccc2N)cc1
O=C(C[C@H]1CC[C@@H]2[C@H](COC[C@H](O)CN2S(=O)(=O)c2ccccc2)O1)NCCN1CCCCC1
COc1ccc(CN(C)C[C@@H]2OCCCC[C@@H](C)Oc3ccc(NS(=O)(=O)c4cccs4)cc3C(=O)N([C@H](C)CO)C[C@H]2C)cc1

Source: the antibiotic and cytotoxicity screens of Wong et al. (2023)
